These results are taken from the BET-seq Pho4 binding data (Le et al. 2018).

The list shows a part of the results. The energies were worked out here from pooled read counts, against the library average; single values are noisy.

For this assay, the target named is T1, Pho4 (S. cerevisiae) (UniProt P07270).
T1 sequence: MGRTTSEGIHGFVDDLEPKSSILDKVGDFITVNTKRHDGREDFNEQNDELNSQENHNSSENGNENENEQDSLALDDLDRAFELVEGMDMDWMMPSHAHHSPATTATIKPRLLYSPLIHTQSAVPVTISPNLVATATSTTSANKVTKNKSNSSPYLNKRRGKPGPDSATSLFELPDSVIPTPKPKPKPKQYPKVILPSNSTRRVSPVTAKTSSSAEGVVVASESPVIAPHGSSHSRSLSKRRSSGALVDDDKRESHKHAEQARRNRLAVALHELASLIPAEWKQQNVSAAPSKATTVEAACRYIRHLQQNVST
The experiment in a line: relative binding free energy (BET-seq); higher = weaker binding. The settings on record: reference: library average.
As for GGCGCCACGTGAAGGG, the “relative binding free energy” value is 0.12 kcal/mol. On to TGCTGCACGTGGGTTG, for which the “relative binding free energy” value is -0.03 kcal/mol. As for GTCTCCACGTGGTTGG, the figure is -0.01 kcal/mol; as for GGTGTCACGTGTTGGT, 0.11 kcal/mol. For AGCGGCACGTGCTGGG, the “relative binding free energy” value was -0.04 kcal/mol.

For CATTGCACGTGGGCGG, the “relative binding free energy” value was -0.23 kcal/mol. The result for TATTGCACGTGGCATG reads -0.11 kcal/mol; that for GTGTTCACGTGCTTGT, 0.33 kcal/mol. As for GCGTGCACGTGGTGTA, the figure is -0.22 kcal/mol; as for TATTACACGTGGTGAA, 0.09 kcal/mol. The result for AGGGCCACGTGCTTGT reads -0.25 kcal/mol; that for TTGAGCACGTGGAGGT, -0.16 kcal/mol; that for TGTTGCACGTGACGAG, 0.2 kcal/mol. As for AGAATCACGTGGGCAG, the “relative binding free energy” value was found to be 0.1 kcal/mol.

AGGTGCACGTGTTAAA: the “relative binding free energy” value was -0.04 kcal/mol.

GGACTCACGTGGGTAG: the “relative binding free energy” value stood at 0.09 kcal/mol. As for ACTGTCACGTGGTCTG, the figure is 0.07 kcal/mol; as for AGAATCACGTGGCGGG, 0.1 kcal/mol. With GTATACACGTGTGGGT, the “relative binding free energy” value is 0.05 kcal/mol. ATTTCCACGTGTCTTT: the “relative binding free energy” value is 0.31 kcal/mol.

Turning to GACGACACGTGGCGGG, the “relative binding free energy” value is 0.11 kcal/mol. The result for TTAAGCACGTGATGGC reads 0 kcal/mol; that for TCGGACACGTGGCTGT, -0.05 kcal/mol. As for CAAGTCACGTGTTTTT, the figure is 0.13 kcal/mol; as for AAAGGCACGTGCGTTA, -0.06 kcal/mol.

As for GATTTCACGTGAGGTA, the “relative binding free energy” value amounted to 0.39 kcal/mol. With ATGCGCACGTGGGTGC, the “relative binding free energy” value was -0.3 kcal/mol. The result for CGGATCACGTGTGATG reads 0.22 kcal/mol; that for TCAGTCACGTGGTATT, 0.06 kcal/mol. Turning to GAGGTCACGTGATGAT, the “relative binding free energy” value is 0.32 kcal/mol. Consider TAAAGCACGTGGGCAG, for which the “relative binding free energy” value is -0.22 kcal/mol. In the case of GTTACCACGTGGGGGT, the “relative binding free energy” value was -0.17 kcal/mol. As for CGATTCACGTGGGGGA, the figure is 0.24 kcal/mol; as for CGGAGCACGTGTGGTG, 0.04 kcal/mol.

Regarding TGAATCACGTGTAGGT, the “relative binding free energy” value turned out to be 0.15 kcal/mol. Regarding GTATCCACGTGTTTGA, the “relative binding free energy” value turned out to be 0.15 kcal/mol. As for TTGTACACGTGCGCGT, the figure is -0.1 kcal/mol. The result for GGTGTCACGTGCTACG reads 0.12 kcal/mol.

In the case of GTGAACACGTGTAGGG, the “relative binding free energy” value was found to be 0.08 kcal/mol. As to ATAATCACGTGAGGGA, the “relative binding free energy” value came to 0.41 kcal/mol. As for GGGTGCACGTGGGGCG, the figure is -0.08 kcal/mol; as for TTTAGCACGTGACTTT, 0.03 kcal/mol; as for TGTTGCACGTGGGTAA, -0.13 kcal/mol. The result for TTTTACACGTGTACTG reads 0.1 kcal/mol; that for GTGACCACGTGTGTGT, 0.04 kcal/mol; that for GATCGCACGTGATGGG, 0.29 kcal/mol. As for TGTATCACGTGCGGAA, the figure is 0.12 kcal/mol. CTTGTCACGTGCTGGT: the “relative binding free energy” value amounted to 0.05 kcal/mol. For GTTTGCACGTGATTTA, the “relative binding free energy” value was 0.03 kcal/mol. Consider GTTAACACGTGTTTCA, for which the “relative binding free energy” value is 0.15 kcal/mol. For the sequence AGGAGCACGTGTTCTG, the “relative binding free energy” value is -0.14 kcal/mol. For the sequence GTTATCACGTGGGCTA, the “relative binding free energy” value amounted to 0.03 kcal/mol.

With TGATACACGTGTGAGG, the “relative binding free energy” value was found to be 0 kcal/mol.

GTAAGCACGTGAGGGC: the “relative binding free energy” value amounted to 0 kcal/mol.

For TTGCACACGTGTAGAG, the “relative binding free energy” value is 0.1 kcal/mol. As for AAGGTCACGTGCGTGG, the figure is 0.05 kcal/mol; as for CGATACACGTGTTGTG, 0.2 kcal/mol; as for TTGGGCACGTGATATT, 0.06 kcal/mol. As for CGAGGCACGTGGGTAA, the figure is -0.07 kcal/mol; as for GGTTTCACGTGGTTCA, 0.31 kcal/mol. As for GCGGACACGTGGAAGG, the figure is 0.14 kcal/mol; as for GCGTACACGTGCGGGG, -0.02 kcal/mol; as for AGGCGCACGTGTCGGT, -0.11 kcal/mol. In the case of TTGACCACGTGGGTGA, the “relative binding free energy” value is -0.28 kcal/mol.

Take GCTATCACGTGGGGTA: the “relative binding free energy” value was 0 kcal/mol.

As for GGGTACACGTGTAGTT, the “relative binding free energy” value worked out at 0.18 kcal/mol. With TAGGGCACGTGTCTTT, the “relative binding free energy” value was -0.09 kcal/mol. For the sequence CGACTCACGTGGTGGG, the “relative binding free energy” value was 0.01 kcal/mol. As for TTCATCACGTGGTTTA, the figure is 0.22 kcal/mol. With GGATTCACGTGTTATA, the “relative binding free energy” value came to 0.18 kcal/mol. For TCTTTCACGTGTGGTG, the “relative binding free energy” value is 0.39 kcal/mol. GTTTGCACGTGTCGGG: the “relative binding free energy” value is 0.08 kcal/mol. In the case of AGAAGCACGTGCTGGT, the “relative binding free energy” value is -0.17 kcal/mol.

Take GGTGACACGTGGGGAG: the “relative binding free energy” value is -0.05 kcal/mol. GCGATCACGTGGGTTA: the “relative binding free energy” value is 0.13 kcal/mol. The result for GGTTGCACGTGTCCGT reads 0.06 kcal/mol. Consider TTGAGCACGTGGGGCA, for which the “relative binding free energy” value was -0.24 kcal/mol. Take TTTATCACGTGCTGTT: the “relative binding free energy” value came to 0.12 kcal/mol. Turning to CGAGGCACGTGAGAGT, the “relative binding free energy” value was determined as 0.01 kcal/mol. The result for TAAGACACGTGAGTTG reads 0.2 kcal/mol. With TGTTTCACGTGTGAAC, the “relative binding free energy” value was 0.33 kcal/mol.

AGGGACACGTGAGGGA: the “relative binding free energy” value is 0.19 kcal/mol. As for GTGTGCACGTGGGTAC, the figure is -0.3 kcal/mol; as for ATGTACACGTGAAAGT, 0.22 kcal/mol; as for CAGATCACGTGGCGGT, 0.15 kcal/mol. As for TTTGGCACGTGTGCCT, the figure is -0.12 kcal/mol; as for AGTTACACGTGGATGA, 0.03 kcal/mol. TGGACCACGTGGAGGT: the “relative binding free energy” value was -0.06 kcal/mol. The result for GGCGGCACGTGAAGAT reads 0.34 kcal/mol; that for TTGGTCACGTGATCGA, 0.23 kcal/mol. For the sequence TGGGACACGTGGTAGT, the “relative binding free energy” value came out at 0.06 kcal/mol. For ATGTTCACGTGTGTCA, the “relative binding free energy” value was determined as 0.22 kcal/mol. The result for GGTATCACGTGACTGT reads 0.3 kcal/mol; that for AGTTTCACGTGTTCAG, 0.29 kcal/mol; that for AAGCACACGTGTGGGG, 0.05 kcal/mol. The result for CTGGGCACGTGGGAAT reads -0.12 kcal/mol; that for TGTGTCACGTGATAAT, 0.21 kcal/mol; that for TTAGTCACGTGCGGGA, 0.13 kcal/mol. For AAATGCACGTGTCGGG, the “relative binding free energy” value was -0.02 kcal/mol. In the case of GGGTACACGTGCGGAT, the “relative binding free energy” value was 0.15 kcal/mol. As for TAATGCACGTGAGGAT, the figure is 0.23 kcal/mol; as for GTGGTCACGTGGGTAC, 0.06 kcal/mol.

Turning to TAGGTCACGTGTGATA, the “relative binding free energy” value came to 0.18 kcal/mol. The result for AGTGTCACGTGTGACG reads 0.15 kcal/mol; that for GGTCGCACGTGTATTT, 0.05 kcal/mol. Turning to AGTTTCACGTGGGGGG, the “relative binding free energy” value is 0.19 kcal/mol. The result for ATGCTCACGTGGTATT reads 0.18 kcal/mol. In the case of TGAGTCACGTGGCATT, the “relative binding free energy” value amounted to 0 kcal/mol. As for TAGTTCACGTGGTAAG, the figure is 0.28 kcal/mol; as for GTTTTCACGTGCCTTT, 0.21 kcal/mol.

For TTTCTCACGTGGTTAA, the “relative binding free energy” value worked out at 0.08 kcal/mol. The result for TTGTACACGTGATTCT reads 0.24 kcal/mol; that for AGTGGCACGTGGCGAT, -0.17 kcal/mol; that for GTGTGCACGTGGGCGG, -0.22 kcal/mol. The result for GGCTCCACGTGGAGGG reads -0.13 kcal/mol.
